From the supplement of paper PMC4967469 come the findings set out here.

IC50 is the fitted dose that halves viability relative to control wells, and lower means more sensitive; a fit beyond the top or the lowest dose is shown as a bound at that dose. AUC is the area under the same curve over the 256-fold range up to the top dose, as a fraction: 1 means no effect, lower means more sensitive. The top dose, if marked as inferred, comes from the curve model; the source does not state it.

By IC50 is commonly meant the midpoint of a concentration-inhibition curve.

Compound in the assay: CC1=C(C(=O)Nc2cc3cn[nH]c3cc2F)C(c2ccc(C(F)(F)F)cc2)CC(=O)N1 [GSK429286A]
Description: Viability of human cancer cell lines after 72 h of drug (GDSC screen). Conditions: top dose inferred. On the procedure:
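Human cancer cell lines in 384-well plates, medium with 10% serum, drug for 72 h over a 256-fold dose range (nine 2-fold or five 4-fold steps up to the top dose). Adherent lines were fixed and stained with the nucleic acid dye Syto60, suspension lines read with resazurin; signal relative to control wells, capped at 0 and 100%. One two-parameter sigmoid per drug and line, fitted in a mixed model over all curves with the slope shared within a line.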
Consider “A427 (non-small cell lung carcinoma, adherent, top dose 20 µM)”, for which the AUC stood at 0.979 and the IC50 is greater than 20 µM.

A431 (skin, adherent, top dose 20 µM): the AUC amounted to 0.982 and the IC50 was greater than 20 µM.

As for A498 (kidney, adherent, top dose 20 µM), the AUC amounted to 0.975 and the IC50 was greater than 20 µM.

Turning to “A673 (rhabdomyosarcoma, adherent, top dose 20 µM)”, the AUC was 0.98 and the IC50 is greater than 20 µM.

As to A704 (kidney, adherent, top dose 20 µM), the AUC amounted to 0.882 and the IC50 is greater than 20 µM.

On to “A2058 (melanoma, adherent, top dose 20 µM)”, for which the AUC turned out to be 0.959 and the IC50 is greater than 20 µM.

As for “A2780 (ovary, semi-adherent, top dose 20 µM)”, the AUC amounted to 0.518 and the IC50 is 1.4 µM.

As for “ABC-1 (lung adenocarcinoma, adherent, top dose 20 µM)”, the AUC was found to be 0.973 and the IC50 was greater than 20 µM.

In the case of ACHN (kidney, adherent, top dose 20 µM), the AUC is 0.969 and the IC50 was greater than 20 µM.

Take AGS (stomach, adherent, top dose 20 µM): the AUC is 0.984 and the IC50 is greater than 20 µM.

For the cell line “ALL-PO (lymphoblastic leukaemia, suspension, top dose 20 µM)”, the AUC was determined as 0.919 and the IC50 is greater than 20 µM.

“ALL-SIL (T-cell leukaemia, suspension, top dose 20 µM)”: the AUC is 0.91 and the IC50 is greater than 20 µM.

With “AM-38 (glioma, semi-adherent, top dose 20 µM)”, the AUC came to 0.881 and the IC50 is greater than 20 µM.

Consider “AMO-1 (haematopoietic neoplasm, suspension, top dose 20 µM)”, for which the AUC was determined as 0.944 and the IC50 is greater than 20 µM.

On to “AN3-CA (endometrium, adherent, top dose 20 µM)”, for which the AUC was determined as 0.965 and the IC50 is greater than 20 µM.

Turning to “ARH-77 (myeloma, suspension, top dose 20 µM)”, the AUC was 0.974 and the IC50 was greater than 20 µM.

Consider “ASH-3 (thyroid, adherent, top dose 20 µM)”, for which the AUC turned out to be 0.988 and the IC50 is greater than 20 µM.

For the cell line “ATN-1 (T-cell lymphoblastic leukaemia, suspension, top dose 20 µM)”, the AUC amounted to 0.844 and the IC50 came out at 12.9 µM.

On to “AU565 (breast, adherent, top dose 20 µM)”, for which the AUC came out at 0.975 and the IC50 was greater than 20 µM.

Regarding “AsPC-1 (pancreas, adherent, top dose 20 µM)”, the AUC worked out at 0.967 and the IC50 was greater than 20 µM.

Take “BB30-HNC (head and neck, adherent, top dose 20 µM)”: the AUC is 0.982 and the IC50 was greater than 20 µM.

For “BB49-HNC (head and neck, adherent, top dose 20 µM)”, the AUC was determined as 0.944 and the IC50 was greater than 20 µM.

“BB65-RCC (kidney, adherent, top dose 20 µM)”: the AUC is 0.983 and the IC50 is greater than 20 µM.

For the cell line “BC-1 (B-cell lymphoma, suspension, top dose 20 µM)”, the AUC was 0.932 and the IC50 is greater than 20 µM.

With “BC-3 (B-cell lymphoma, suspension, top dose 20 µM)”, the AUC was determined as 0.984 and the IC50 is greater than 20 µM.

In the case of “BCPAP (thyroid, adherent, top dose 20 µM)”, the AUC amounted to 0.978 and the IC50 was greater than 20 µM.

For the cell line “BE2-M17 (neuroblastoma, adherent, top dose 20 µM)”, the AUC was determined as 0.985 and the IC50 was greater than 20 µM.

On to “BE-13 (lymphoblastic leukaemia, suspension, top dose 20 µM)”, for which the AUC stood at 0.775 and the IC50 worked out at 7.37 µM.

Regarding “BEN (non-small cell lung carcinoma, adherent, top dose 20 µM)”, the AUC was 0.959 and the IC50 was greater than 20 µM.

Consider “BFTC-905 (bladder, adherent, top dose 20 µM)”, for which the AUC was 0.99 and the IC50 was greater than 20 µM.

“BFTC-909 (kidney, adherent, top dose 20 µM)”: the AUC was determined as 0.973 and the IC50 is greater than 20 µM.

In the case of “BHT-101 (thyroid, adherent, top dose 20 µM)”, the AUC worked out at 0.965 and the IC50 is greater than 20 µM.

Turning to “BHY (head and neck, adherent, top dose 20 µM)”, the AUC stood at 0.985 and the IC50 was greater than 20 µM.

Regarding “BICR10 (head and neck, adherent, top dose 20 µM)”, the AUC was 0.984 and the IC50 is greater than 20 µM.

Consider “BICR22 (head and neck, adherent, top dose 20 µM)”, for which the AUC stood at 0.983 and the IC50 is greater than 20 µM.

Turning to “BICR31 (head and neck, adherent, top dose 20 µM)”, the AUC came to 0.988 and the IC50 was greater than 20 µM.

“BICR78 (head and neck, adherent, top dose 20 µM)”: the AUC stood at 0.975 and the IC50 was greater than 20 µM.

Consider “BL-41 (Burkitt lymphoma, suspension, top dose 20 µM)”, for which the AUC came to 0.791 and the IC50 was 6.74 µM.

Take “BPH-1 (prostate, adherent, top dose 20 µM)”: the AUC came to 0.909 and the IC50 was greater than 20 µM.

With “BT-20 (breast, adherent, top dose 20 µM)”, the AUC came to 0.984 and the IC50 is greater than 20 µM.

For the cell line “BT-474 (breast, adherent, top dose 20 µM)”, the AUC was found to be 0.986 and the IC50 was greater than 20 µM.

For “BT-483 (breast, adherent, top dose 20 µM)”, the AUC came to 0.978 and the IC50 was greater than 20 µM.

On to “BV-173 (chronic myeloid leukaemia, suspension, top dose 20 µM)”, for which the AUC turned out to be 0.926 and the 50% inhibitory concentration (IC50) is greater than 20 µM.

As to “Becker (glioma, adherent, top dose 20 µM)”, the AUC was determined as 0.981 and the IC50 is greater than 20 µM.

Turning to “BxPC-3 (pancreas, adherent, top dose 20 µM)”, the AUC is 0.981 and the IC50 was greater than 20 µM.

“C2BBe1 (large intestine, adherent, top dose 20 µM)”: the AUC was 0.986 and the IC50 is greater than 20 µM.

With C3A (liver, adherent, top dose 20 µM), the AUC was found to be 0.988 and the IC50 was greater than 20 µM.

For the cell line “C32 (melanoma, adherent, top dose 20 µM)”, the AUC was 0.987 and the IC50 was greater than 20 µM.

For “C-4-I (cervix, adherent, top dose 20 µM)”, the AUC came out at 0.982 and the IC50 is greater than 20 µM.

As for “C-33-A (cervix, adherent, top dose 20 µM)”, the AUC is 0.946 and the IC50 was greater than 20 µM.

Turning to “CA46 (Burkitt lymphoma, suspension, top dose 20 µM)”, the AUC came out at 0.925 and the IC50 was greater than 20 µM.

Consider “CADO-ES1 (Ewing sarcoma, suspension, top dose 20 µM)”, for which the AUC amounted to 0.801 and the IC50 amounted to 9.97 µM.

As to “CAKI-1 (kidney, adherent, top dose 20 µM)”, the AUC came out at 0.956 and the IC50 was greater than 20 µM.

Regarding “CAL-12T (non-small cell lung carcinoma, adherent, top dose 20 µM)”, the AUC came to 0.929 and the IC50 is greater than 20 µM.

With “CAL-27 (head and neck, adherent, top dose 20 µM)”, the AUC turned out to be 0.964 and the IC50 is greater than 20 µM.

In the case of “CAL-29 (bladder, adherent, top dose 20 µM)”, the AUC worked out at 0.983 and the IC50 was greater than 20 µM.

With “CAL-33 (head and neck, adherent, top dose 20 µM)”, the AUC turned out to be 0.947 and the concentration for half-maximal inhibition (IC50) is greater than 20 µM.

On to “CAL-39 (cervix, adherent, top dose 20 µM)”, for which the AUC came out at 0.982 and the IC50 is greater than 20 µM.

Consider “CAL-51 (breast, adherent, top dose 20 µM)”, for which the AUC was 0.983 and the IC50 was greater than 20 µM.

As for “CAL-54 (kidney, adherent, top dose 20 µM)”, the AUC was determined as 0.958 and the IC50 was greater than 20 µM.

For “CAL-62 (thyroid, adherent, top dose 20 µM)”, the AUC is 0.975 and the IC50 is greater than 20 µM.

Turning to “CAL-72 (osteosarcoma, adherent, top dose 20 µM)”, the AUC came out at 0.983 and the 50% inhibitory concentration (IC50) is greater than 20 µM.

As to “CAL-78 (chondrosarcoma, adherent, top dose 20 µM)”, the AUC worked out at 0.986 and the IC50 was greater than 20 µM.

As for “CAL-85-1 (breast, adherent, top dose 20 µM)”, the AUC turned out to be 0.963 and the IC50 is greater than 20 µM.

“CAL-120 (breast, adherent, top dose 20 µM)”: the AUC worked out at 0.917 and the IC50 was greater than 20 µM.

On to “CAL-148 (breast, suspension, top dose 20 µM)”, for which the AUC amounted to 0.989 and the IC50 is greater than 20 µM.

“CAMA-1 (breast, adherent, top dose 20 µM)”: the AUC came to 0.966 and the concentration for half-maximal inhibition (IC50) was greater than 20 µM.

Regarding “CAPAN-1 (pancreas, adherent, top dose 20 µM)”, the AUC was 0.983 and the IC50 is greater than 20 µM.
